Measurements published in article PMC12040169 (PLOS Biology, 2025).
This is one part of the list.

System: T1, C. trachomatis L2/434/Bu expressing GFP (CTL2-GFP)
T1 construct: L2/434/Bu GFP intracellular growth in HeLa cells
Design: species or system HeLa; C. trachomatis total inclusion area by high-content imaging, normalised to DMSO
Conditions: total inclusion area; 28.5 h, 10 µM; inhibitor
Summary of the method: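 After bulk GFP and resorufin fluorescence reads, cells were fixed, stained with Hoechst and imaged by high-content microscopy. Inclusion area and number (GFP) stood in for chlamydial growth, nuclei count (Hoechst) for host cell viability. MICs were derived as for the bulk readout.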

Compound	% of control remaining
CN(CC(=O)O)C(=O)c1ccc(S(=O)(=O)N2CCCCC2)cc1 [CBK265715]	94.6423
COc1ccc(C(=O)Nc2cncc(OC3CCNCC3)n2)cc1 [CBK036370T]	102.122
Cc1ccc(CN(CCCn2ccnc2)Cc2ccccn2)o1 [CBK283102]	96.7107
Cc1nc(C)n(CC2CCCN2Cc2cn3ccccc3c2C#N)n1 (stereo not shown) [CBK304006]	83.6365
CCOc1ccc(-c2cncc(N3CCC(C(=O)O)CC3)n2)cc1 [CBK065870]	143.359
CCN1CCC(CC(=O)N2CCC(c3ccccc3)C2)CC1 (stereo not shown) [CBK281958]	125.172
COCCC(=O)NC(Cc1ccsc1)c1nc(C)cs1 (stereo not shown) [CBK282830]	87.9776
O=C(O)CC1(CNC(=O)Cn2nc(-c3ccccc3)ccc2=O)CCCCC1 [CBK286866]	61.3767
Cn1c(C(=O)NCCN2CCOCC2)cc2oc(-c3ccccc3)nc2c1=O [CBK056726T]	130.336
CC(NC(=O)CC(C)n1cccn1)c1cc2cc(Cl)ccc2o1 (stereo not shown) [CBK281432]	114.253
CN(CC1CCCC1)c1nccc(N2CCN[C@H]3CS(=O)(=O)C[C@H]32)n1 [CBK307060]	106.816
Cc1nn(C)cc1C(C)NC(=O)C1(c2ccccc2F)CCOCC1 (stereo not shown) [CBK281594]	96.2742
CCC(=O)N1CCC(c2nc(C3CCCC3)no2)C1 (stereo not shown) [CBK285458]	71.9223
COC(=O)c1sccc1-c1ccc(C2C3=C(CCCC3=O)NC3=C2C(=O)CCC3)o1 [CBK005748]	95.2418
COc1c(Cl)cc(Cl)cc1CNCCCN1CCOCC1 [CBK278165C]	80.123
CCNc1nccnc1-c1ccncc1 [CBK088586]	104.407
Cc1ccn(CCNC(=O)Cn2c3c(c4ccccc42)CCC3)n1 [CBK282708]	124.541
CC(C)(C)C1=CC2=NC3(CCC3)C3C[C@](O)(Cc4ccccc4)[C@@H](O)[C@@H]3N2O1 (stereo partly shown) [CBK303261]	83.2992
O=C(Nc1cc(Oc2cccnc2)cc([N+](=O)[O-])c1)c1cc2nc(-c3ccccc3)cc(-c3ccccc3)n2n1 [CBK262554]	83.4528
COc1ccc([N+](=O)[O-])cc1N(CC(=O)Nc1cccc2ccccc12)S(C)(=O)=O [CBK268197]	68.6765

Compound	% of control remaining
COc1cc(/C=C/C(=O)O)cc(S(=O)(=O)N2CCc3ccccc3C2)c1OC [CBK264406]	110.706
N#Cc1ccc(-c2csc(NC(=O)c3ccc(Cl)s3)n2)cc1 [CBK287321]	79.1229
Cc1nc2ccc(C(=O)N3CCN(C)CC3)cn2c1N(C)C(=O)CCc1ccccc1 [CBK146786]	112.029
OC1CC(c2cc(F)ccc2F)N(CCc2ccncc2)C1 (stereo not shown) [CBK305106]	94.3964
CC(C)(C)OC(=O)NCc1ccc(CNCc2cccc(Cl)c2)cc1 [CBK056704]	56.7362
Cc1oc(CC(C)C)c(CN2CCCCC2)c1C(=O)O [CBK265448C]	87.752
Cc1cc(CN2CCCN(S(=O)(=O)c3ccc(C(F)(F)F)cc3Cl)CC2)cc(C)c1O [CBK063102]	91.5139
COc1ccc(C)cc1C1(CNC(=O)C2CC(O)CN2)CCOCC1 (stereo not shown) [CBK304162]	110.479
O=C(O)c1ccccc1-c1ccccc1C(=O)Nc1cccc(-c2nc3ccccc3o2)c1 [CBK262767]	106.164
Cc1nnc(NC(=O)Cc2ccc(F)cc2)s1 [CBK287360]	73.6357
O=C(Nc1ccccc1-n1cccc1)C1Cc2c([nH]c3ccccc23)C2(CCN(Cc3ccccc3)C2)N1 (stereo not shown) [CBK059395]	101.556
CCN(Cc1ccccn1)C(=O)NC(C)c1cccc(NC(C)=O)c1 (stereo not shown) [CBK305380]	70.873
CC(C)(C)NC(=O)C[C@@H]1CCNC[C@@H]1Cc1cc(-c2ccccc2)on1 [CBK289145]	101.213
Cc1c(Cl)c([N+](=O)[O-])nn1CCCC(=O)Nc1sc2c(c1C#N)CCC(C(C)(C)C)C2 (stereo not shown) [CBK269111]	101.532
Cc1csc(C(C)NC(=O)NC2CCCN(c3ccn(C)n3)C2=O)n1 (stereo not shown) [CBK304426]	45.6124
Nc1nonc1-n1nncc1CN1CCCCC1 [CBK307045]	73.0113
O=C(Cn1cccc(C(=O)Nc2cc(F)ccc2N2CCCC2)c1=O)NC1CCCCC1 [CBK286008]	109.052
Cc1cc(C)n(C(=O)c2ccc([N+](=O)[O-])cc2N)n1 [CBK266491]	106.935
Cc1ccc(NC(=S)NC(=O)Cc2ccccc2)c(O)c1 [CBK264337]	106.225
O=C1COc2ccccc2C/C=C/CC2(CCCN(C(=O)CCN3CCCC3)C2)CN1 (stereo not shown) [CBK292136]	102.737
